The numbers were not newly measured in patent publication US4419349A (priority 1978, dated 1983), which cites them from elsewhere.

The first data set has as its system interferon induction. The following applies: 56 °C, 5 hours; cited from earlier work.
Regarding phytohemagglutinin, the “IF-inducing activity after heating” value is listed as “inactivated”.

In the case of pokeweed mitogen, the “IF-inducing activity after heating” value is given as “inactivated”.

The data set is the same for the next values; noted with them: cited from earlier work.
For the compound `C=C(C)[C@@H]1CC=C(C)CC1` [Sample 1-limonene, 1-limonene], the IF-inducing activity result was “no IF-inducing activity”.

Regarding `CC(C)[C@@H]1CC[C@@H](C)C[C@H]1O` [Sample 1-menthol, 1-menthol], the IF-inducing activity entry is listed as “no IF-inducing activity”.

In the case of `CC(C)=CC(=O)c1occc1C` [naginata ketone], the IF-inducing activity entry was “no IF-inducing activity”.

`C=C(C)C1CC=C(C=O)CC1` (stereo not shown) [perilla aldehyde]: the IF-inducing activity result is “no IF-inducing activity”.

Regarding `CC(C)CCC(=O)c1ccoc1` [perilla ketone], the IF-inducing activity result is reported as “no IF-inducing activity”.

As to `O=C(/C=C/c1ccc(O)cc1)OC[C@H]1O[C@@H](Oc2cc3c(O[C@@H]4O[C@H](CO)[C@@H](O)[C@H](O)[C@H]4O)cc(O)cc3[o+]c2-c2ccc(O)c(O)c2)[C@H](O)[C@@H](O)[C@@H]1O` [shisonin], the IF-inducing activity entry is given as “no IF-inducing activity”.

Consider `CC1=CCC2CC1C2(C)C` (stereo not drawn) [α-pinene], for which the IF-inducing activity entry is “no IF-inducing activity”.

Still in this data set, the particulars now being: literature statement; cited from earlier work.
Consider dihydroperilla alcohol, for which the IF-inducing activity result is “no IF-inducing activity”.
